From PMC4336329 (PLoS ONE, 2015)
Screen size: about 310,000 compounds; about 2,200 (0.71%) showed an effect of 50% or more. Effects have a minus sign here. The list shows a part of the results.

Molecular target: human ether-à-go-go-related gene (hERG) potassium channel (human, UniProt Q12809)
Assay: primary screen, population patch clamp on CHO cells stably expressing hERG

Chain of human ether-à-go-go-related gene (hERG) potassium channel (Q12809 whole entry, looked up): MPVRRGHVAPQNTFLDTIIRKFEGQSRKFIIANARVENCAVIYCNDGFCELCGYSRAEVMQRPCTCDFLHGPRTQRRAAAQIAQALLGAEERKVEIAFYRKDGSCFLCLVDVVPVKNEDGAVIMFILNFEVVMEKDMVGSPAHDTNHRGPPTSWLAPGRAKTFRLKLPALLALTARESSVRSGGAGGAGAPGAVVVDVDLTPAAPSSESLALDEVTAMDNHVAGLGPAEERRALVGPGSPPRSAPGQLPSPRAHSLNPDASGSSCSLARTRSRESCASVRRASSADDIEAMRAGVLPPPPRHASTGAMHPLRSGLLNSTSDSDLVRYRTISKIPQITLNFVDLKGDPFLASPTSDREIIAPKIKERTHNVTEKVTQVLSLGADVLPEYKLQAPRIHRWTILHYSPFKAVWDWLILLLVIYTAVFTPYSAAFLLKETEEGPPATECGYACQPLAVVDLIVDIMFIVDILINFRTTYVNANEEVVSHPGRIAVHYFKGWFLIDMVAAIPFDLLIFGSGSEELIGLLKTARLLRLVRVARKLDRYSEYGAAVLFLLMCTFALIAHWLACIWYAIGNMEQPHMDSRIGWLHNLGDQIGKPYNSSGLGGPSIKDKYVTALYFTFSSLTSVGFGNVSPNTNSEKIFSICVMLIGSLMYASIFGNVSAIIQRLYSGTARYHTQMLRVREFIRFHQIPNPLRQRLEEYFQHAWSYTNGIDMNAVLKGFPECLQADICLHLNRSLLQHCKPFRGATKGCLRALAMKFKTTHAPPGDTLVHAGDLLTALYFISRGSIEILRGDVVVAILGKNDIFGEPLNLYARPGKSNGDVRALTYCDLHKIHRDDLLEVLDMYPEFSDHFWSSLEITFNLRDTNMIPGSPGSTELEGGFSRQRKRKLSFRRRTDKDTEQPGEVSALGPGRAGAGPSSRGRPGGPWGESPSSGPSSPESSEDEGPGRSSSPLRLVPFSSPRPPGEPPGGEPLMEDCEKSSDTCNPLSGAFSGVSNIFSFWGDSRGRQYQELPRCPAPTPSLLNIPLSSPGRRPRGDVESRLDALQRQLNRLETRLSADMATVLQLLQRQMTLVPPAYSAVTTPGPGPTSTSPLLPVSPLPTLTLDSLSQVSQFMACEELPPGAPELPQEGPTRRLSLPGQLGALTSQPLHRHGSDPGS

Row | SMILES | hERG current change (%, negative = inhibition) at 1uM [%]
1 | COc1ccc(C(=O)NCc2ccc3c(c2)cc(C)n3C)cc1 | 6.47
2 | CC(=O)c1ccc(S(=O)(=O)Nc2cccc(-n3cnnn3)c2)cc1 | 14
3 | CCOC(=O)c1[nH]c2ccccc2c1NC(=O)Nc1ccc(OC)cc1 | 0.729
4 | O=C(Cn1cnc2ccccc2c1=O)NCc1cccs1 | 11.4
5 | Cc1ccc(-c2c(C(=O)N/N=C/c3cccc(Cl)c3)nnn2-c2nonc2N)cc1 | 14.7
6 | C=CCn1c(SCC(=O)Nc2cc(C)ccc2C)nnc1-c1cnccn1 | 0.11
7 | CCOC(=O)CSCC(=O)Nc1ccc(S(=O)(=O)N2CCCCC2)cc1 | 15.1
8 | O=C(NCc1ccco1)C(Cc1ccccc1)N1C(=O)C2C3C=CC(C3)C2C1=O (stereo not drawn) | 3.13
9 | O=C(CSc1nncn1-c1ccccc1)Nc1cccc(S(=O)(=O)N2CCCCC2)c1 | 19.8
10 | CCc1nnc(NC(=O)CN2C(=O)c3ccccc3S2(=O)=O)s1 | 10.6
11 | COCCn1c(SCC(=O)NC2CCCC2)nc2cccnc21 | 6.19
12 | O=C(/C=C/c1cccs1)Nc1nccs1 | 11.2
13 | CN(c1ccccc1)S(=O)(=O)c1ccc(NC(=O)c2nc(S(C)(=O)=O)ncc2Cl)cc1 | 16
14 | CN1CCc2c(sc3c2c(NCc2ccco2)nc2nnnn23)C1 | -72.8
15 | Cc1ccc(S(=O)(=O)NCCOCCNS(=O)(=O)c2ccc(C)cc2)cc1 | -2.18
16 | Cc1ccc(OCC(=O)Nc2cccc3nsnc23)c(C)c1 | 12.7
17 | CCN1CCN(c2nc3c(C)cccn3c(=O)c2/C=C(\C#N)S(=O)(=O)c2ccccc2)CC1 | 7.48
18 | CC(=O)Nc1cccc(N)c1 | 8.08
19 | Cc1cccc(CC(=O)Nc2ccc(C(=O)N3CCCCC3)cc2)c1 | 19
20 | CC(C)C(NC(=O)c1ccccc1)C(=O)NCc1ccccn1 (stereo not drawn) | 11.7
21 | COc1ccccc1/C=C(\C)C(=O)c1c(C)cc(C)[nH]c1=O | 9.79
22 | Cc1nc(OCc2ccccc2)c2ccccc2n1 | 7.6
23 | O=C(Cc1ccc(F)cc1)Nc1cccc(S(=O)(=O)N2CCCC2)c1 | -4.72

Row | SMILES | hERG current change (%, negative = inhibition) at 1uM [%]
24 | COc1ccc(-c2noc(CSc3nnc(-c4ccccc4)n3C)n2)cc1 | -4.91
25 | O=[N+]([O-])c1ccccc1CCc1cnc(Cl)s1 | 15.8
26 | O=C(NCCN1CCN(C(=O)c2c(F)cccc2F)CC1)C(=O)Nc1ccc(Cl)cc1 | 3.99
27 | COc1cccc(-c2nc(CS(=O)(=O)CC(=O)N3CCOCC3)c(C)o2)c1 | 8.98
28 | CSc1ccc(-c2nc(CSCC(=O)N3CCOCC3)c(C)o2)cc1 | -8.01
29 | COc1ccc(C(=O)/C=C/N2CCCCC2)cc1OC | 12.1
30 | Cc1cccn2c(=O)c3cc(C(=O)N(C)C)n(C)c3nc12 | 10.8
31 | Nc1nc(NCc2ccccc2Cl)n(-c2ccccc2)n1 | 18.7
32 | O=C(Nc1ccccc1)Nc1ccc(C(F)(F)F)cn1 | 2.25
33 | O=C(Nc1ccccc1Oc1cccnc1)C1CCCN(Cc2ccccc2O)C1 (stereo not drawn) | 3.3
34 | COc1ccc2cc(C(=O)C3CCCN(C(=O)c4cc(=O)n(C)c(=O)n4C)C3)ccc2c1 (stereo not drawn) | 3.22
35 | O=C(NCCn1c(C(F)(F)F)nc2ccccc21)[C@H]1CCCN1c1nc(CN2CCCCC2)cs1 | 9.26
36 | CCOC(=O)N1CCN(c2c(NCCc3ccccc3)c(=O)c2=O)CC1 | 6.45
37 | O=C(Nn1cnc2ccccc2c1=O)c1ccccc1 | 13.7
38 | Cc1cc(NC(=O)C(C)SCC(=O)OCC(=O)N(Cc2ccccc2)C(C)(C)C)no1 (stereo not drawn) | 1.19
39 | Nc1cccc(-c2nc3ccc(C(=O)c4ccccc4)cc3[nH]2)c1 | 13.2
40 | O=C(Nc1cc(S(=O)(=O)N2CCOCC2)ccc1Cl)C(=O)c1c(-c2ccccc2)cc2ccccn12 | -0.95
41 | CCC1CCCCN1CCCNC(=O)C1CC(=O)N(CCc2ccccc2)C1 (stereo not drawn) | 13.6
42 | O=C(NCc1ccccc1)C(c1ccco1)N(C(=O)c1csnn1)C1CC1 (stereo not drawn) | 11.6
43 | CC1CCN(c2nc3ccccn3c(=O)c2C=O)CC1 | 9.92
44 | Cc1cc(C(=O)COC(=O)C2=NN(c3ccccc3)C(=O)CC2)c(C)n1CC(F)(F)F | 4.15
45 | O=C1/C(=N\O)Cc2ccccc21 | 8.62
